Values joined by “and” are separate entries in the source; they are usually repeats but may differ in a detail not shown here. Equal entries are not always repeated. About 5,800 (2.1%) of roughly 270,000 compounds were called active. The shares of active, inactive and inconclusive entries below differ from those in the screen. Calls follow the shape of the dose curve; as a rule, active = well fitted inhibition curve with a large enough effect; inconclusive = small, poorly fitted or top-dose-only effect; inactive = flat fitted curve, though single readings scatter. Where the call is inconclusive, the potency comes from a doubtful curve fit.
Biological target: Microtubule-associated protein tau (Homo sapiens) (UniProt P10636)
Test: qHTS for Inhibitors of Tau Fibril Formation, Thioflavin T Binding; also: nearly all actives have a fitted effect of over 55% in size
Settings: recombinant tau K18 P301L (four-repeat tau fragment), heparin-induced fibrillization, ThT fluorescence; series mostly up to 57.4 µM
Procedure, shortened: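 Heparin-induced (20 uM) aggregation of recombinant human K18 P301L tau, 15 uM unlabeled with 0.24 uM labeled, pH 7 acetate buffer, 6 hr at 37 C with compound. Fibrils quantified by 30 uM ThT fluorescence after 1 hr ambient incubation.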
% is scaled to controls: 0 for no effect and ±100 for the full control effect; potency is read from the fitted curve at half-maximal effect; tags tell the direction and shape of the fitted curve.

Chain of UniProt P10636 (P10636 whole entry, looked up): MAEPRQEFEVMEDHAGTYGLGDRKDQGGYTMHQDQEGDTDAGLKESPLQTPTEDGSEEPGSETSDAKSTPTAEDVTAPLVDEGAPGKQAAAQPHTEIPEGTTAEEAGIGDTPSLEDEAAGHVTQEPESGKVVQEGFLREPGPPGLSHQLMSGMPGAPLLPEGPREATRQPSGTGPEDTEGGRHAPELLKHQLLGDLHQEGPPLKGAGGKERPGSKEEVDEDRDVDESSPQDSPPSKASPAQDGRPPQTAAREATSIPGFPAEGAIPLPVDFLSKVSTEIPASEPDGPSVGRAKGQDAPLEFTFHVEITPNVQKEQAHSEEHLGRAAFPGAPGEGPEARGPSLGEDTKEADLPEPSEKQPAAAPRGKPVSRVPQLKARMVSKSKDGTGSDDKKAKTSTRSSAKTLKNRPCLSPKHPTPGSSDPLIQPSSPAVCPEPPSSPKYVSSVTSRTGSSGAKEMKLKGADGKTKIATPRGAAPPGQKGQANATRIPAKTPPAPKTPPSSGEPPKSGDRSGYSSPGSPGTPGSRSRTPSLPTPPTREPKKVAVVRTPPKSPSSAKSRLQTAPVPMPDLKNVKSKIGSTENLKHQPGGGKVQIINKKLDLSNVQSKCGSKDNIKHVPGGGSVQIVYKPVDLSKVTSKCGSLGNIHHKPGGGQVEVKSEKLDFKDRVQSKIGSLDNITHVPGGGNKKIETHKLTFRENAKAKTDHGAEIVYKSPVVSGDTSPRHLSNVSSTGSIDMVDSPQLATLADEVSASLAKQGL

| SMILES | Potency | activity, negative = inhibition |
| --- | --- | --- |
| COc1ccc(Nc2ncc3c(n2)CCN(Cc2ccc(Br)s2)C3)c(OC)c1 | inconclusive: 0.355 µM [inhibitor, partial curve, poor fit] | – |
| COc1ccc(/C=C/c2nc(C#N)c(N3CCC(C)CC3)o2)cc1OC | inconclusive: 4.47 µM [inhibitor, full curve] | – |
| CCOc1ccc(C(=O)Nc2cccc(-c3nc4cccnc4s3)c2C)cc1OCC | inactive | – |
| O=C1CS/C(=C\[N+](=O)[O-])N1c1ccccc1 | inconclusive: 28.2 µM [inhibitor, single point] | – |
| O=C(OCc1cc(=O)n2nc(-c3cccs3)sc2n1)c1ccc(F)cc1 | inconclusive: 0.794 µM [inhibitor, partial curve] | – |
| CCN(c1ccccc1)c1nnc(NC(=O)Nc2ccc(C)cc2)s1 | inconclusive: 31.6 µM [inhibitor, single point] | – |
| O=C(Nc1nc(-c2ccccn2)cs1)c1cc(Cl)ccc1[N+](=O)[O-] | inconclusive: 12.6 µM [inhibitor, partial curve] | – |
| Cc1ccc(N2C(=O)CS(=O)C(c3ccccc3)C2=O)cc1C (stereo unspecified) | inconclusive: 10 µM [inhibitor, partial curve] | – |
| O=C1c2ccccc2C(=O)N1CCCCn1c(=O)oc2ccccc21 | inactive | – |
| CCOc1ccc2nc(COC(=O)c3ccco3)c(C(C)=O)[n+]([O-])c2c1 | inconclusive: 12.6 µM [inhibitor, partial curve, poor fit] | – |
| CC(=O)N1CCCc2cc(S(=O)(=O)N(C)CC(=O)Nc3ccc(Cl)cc3C)ccc21 | inactive | – |
| N=C(N)c1ccc2cc(OC(=O)c3ccc(N=C(N)N)cc3)ccc2c1 | inconclusive: 14.1 µM [inhibitor, partial curve] | – |
| CCn1c(C)cc(/C=C2/NC(=O)N(c3ccccc3)C2=O)c1C | inconclusive: 28.2 µM [inhibitor, single point] | – |
| COc1ccc(NC(=O)c2ccc(COCC(F)(F)F)cc2)cc1OC | inconclusive: 25.1 µM [inhibitor, partial curve, poor fit] | – |
| O=C(Cn1ncc2c(=O)oc3ccccc3c21)NCc1ccc(Cl)cc1 | inactive | – |
| CC1(C)CC(=O)C(N=Nc2cc3c(cc2[N+](=O)[O-])OCCO3)=C(O)C1 | inconclusive: 15.8 µM [inhibitor, partial curve] | – |
| CCOc1ccc(Nc2cc(C)nc3nc(C)nn23)cc1 | inconclusive: 0.501 µM [inhibitor, single point] | – |
| CCCC(NC(C)C(=O)N1C(C(=O)O)CC2CCCCC21)C(=O)OCC (stereo unspecified) | inactive | – |
| Cc1ccc(Nc2nc3ccccc3c3nncn23)cc1C | inconclusive: 17.8 µM [inhibitor, partial curve] | – |
| Cc1nc(-c2coc3cc(O)c(C)cc3c2=O)cs1 | inconclusive: 6.31 µM [inhibitor, full curve] | – |
| CCOc1ccc(N=C2NC(=O)S/C2=C\c2ccc(OC)cc2)cc1 | inconclusive: 0.891 µM [inhibitor, full curve] | – |
| C(=N\Nc1nc2ccccc2[nH]1)/c1ccccc1 | inconclusive: 10 µM [inhibitor, partial curve] | – |
| Nc1ccccc1N=c1ssnc1Cl | active: 22.4 µM | – |
| CCOC(=O)/C(=N\Nc1ccccc1)S(=O)(=O)c1ccccc1 | inactive | – |

| SMILES | Potency | activity, negative = inhibition |
| --- | --- | --- |
| O=C1c2ccccc2C(=O)c2c1ncn2-c1ccccc1 | inactive | – |
| ClC(Cl)(c1nnnn1-c1ccccc1)c1nnnn1-c1ccccc1 | active: 11.2 µM | – |
| CCOc1ccc(-c2cc(CCCC(=O)N3CCN(c4ccc(OC)cc4)CC3)no2)cc1 | inconclusive: 8.91 µM [inhibitor, single point] | – |
| Cc1cccc(-n2nnnc2S(C)(=O)=O)c1 | inconclusive: 3.55 µM [inhibitor, partial curve] | – |
| CCc1ccc(-c2[nH]c3c(c2-c2sc(C)c(C(=O)OC)c2O)c(=O)n(C)c(=O)n3C)cc1 | inactive | – |
| Cc1ccc(OCc2nc3ccccc3n2Cc2ccccc2Cl)cc1 | inconclusive: 15.8 µM [inhibitor, partial curve] | – |
| CCn1cc(C(=O)NCc2ccccc2)c(=O)c2cc(S(=O)(=O)N3CCCCCC3)ccc21 | inactive | – |
| CCOc1cc(NC(=S)NCc2ccco2)c(OCC)cc1NC(=O)C1CC1 | inactive | – |
| Fc1ccccc1-c1nc(-c2ccccc2)no1 | inactive | – |
| COc1ccc(NC(=O)c2ccc(COc3ccccc3OC)o2)cc1OC | inconclusive: 15.8 µM [inhibitor, partial curve] and inconclusive: 17.8 µM [inhibitor, partial curve, poor fit] | – |
| COc1ccc(Nc2ccc(S(=O)(=O)N3CCCCC3)cc2[N+](=O)[O-])cc1Cl | inactive | – |
| CC(C)(C)N=Cc1cc(-c2ccccc2)sc1O | inconclusive: 7.08 µM [inhibitor, partial curve] | – |
| COc1ccc(-c2nnc(SCCc3ccccc3)n2N)cc1 | inconclusive: 1.26 µM [inhibitor, full curve] | – |
| CCC(=O)Nc1ccc(C(=O)OCC(=O)c2ccc(C)c([N+](=O)[O-])c2)cc1 | inconclusive: 1.58 µM [inhibitor, partial curve] | – |
| O=C(N/N=C/c1ccc(Br)o1)c1cc([N+](=O)[O-])cc([N+](=O)[O-])c1 | inconclusive: 39.8 µM [inhibitor, single point] | – |
| CC1(OC(=O)CCc2ccccc2)C(=O)C=C2C=C(c3ccc(C#N)cc3)N(CCc3c[nH]c4ccccc34)C=C2C1=O (stereo unspecified) | inconclusive: 28.2 µM [inhibitor, partial curve] | inactive: -16.7% [at 11.5 µM] |
| COc1ccc(-c2cc(C(=O)Nc3cccc(C(C)=O)c3)no2)cc1 | inconclusive: 2 µM [inhibitor, full curve] | – |
| Nc1nc(-c2ccco2)c(-c2ccco2)s1 | inconclusive: 25.1 µM [inhibitor, partial curve] | – |
| COc1ccc2c(c1)CCc1c(C(=O)Nc3c(C)nn(Cc4ccc(C)cc4)c3C)noc1-2 | inactive | – |
| CCc1nnc(NC(=O)CSc2ccc(-c3ccc(C)cc3)nn2)s1 | inconclusive: 7.94 µM [inhibitor, full curve, poor fit] | – |
| O=c1c(C(c2ccc(F)cc2)c2c(O)nc3n(c2=O)CCCS3)c(O)nc2n1CCCS2 | inconclusive: 7.08 µM [inhibitor, partial curve, poor fit] | – |
| CC(=O)c1ccc(N2CCN(C(=S)Nc3ccccc3C(F)(F)F)CC2)cc1 | inconclusive: 17.8 µM [inhibitor, single point] | – |
| Cc1ccc(/C=N/N2CCN(Cc3ccccc3)CC2)o1 | inconclusive: 39.8 µM [inhibitor, single point] | – |
| COc1cccc(CNC(=O)CCn2cccn2)c1 | inactive | – |

| SMILES | Potency | activity, negative = inhibition |
| --- | --- | --- |
| O=[N+]([O-])c1ccc(Sc2nnnn2-c2ccccc2)nc1 | inconclusive: 8.91 µM [inhibitor, partial curve] | – |
| CC1(C)Cc2c(sc3c2c(=N)n(Cc2ccco2)c(=O)n3CC(=O)Nc2ccc(Cl)cc2)CO1 | inactive | – |
| COc1ccc(NS(=O)(=O)c2cccc3nonc23)c(OC)c1 | inconclusive: 20 µM [inhibitor, single point] | – |
| CCc1ccc(N=C2N=C(N)c3ccccc32)cc1 | inconclusive: 15.8 µM [inhibitor, partial curve] | – |
| Cn1c(=O)[nH]c(=O)c2c1nc(SCCO)n2CC(O)COc1ccccc1 (stereo unspecified) | inactive | – |
| Cc1nnc(-c2cccc(Br)c2)c2cn(-c3ccccc3Cl)nc12 | inactive | – |
| Cc1ccccc1OCC(=O)N1N=C(C(F)(F)F)CC1(O)C(C)(C)C (stereo unspecified) | inconclusive: 20 µM [inhibitor, partial curve] | – |
| O=C(NNC(=S)Nc1ccccc1)C1CC1 | inactive | – |
| O=[N+]([O-])c1ccc(O)c(/C=N/Nc2nn[nH]n2)c1 | inconclusive: 35.5 µM [inhibitor, single point] | – |
| CCOC(=O)c1c(-c2ccc(OC)cc2)oc2ccc(OCc3ccc(C(=O)OC)cc3)cc12 | inconclusive: 4.47 µM [inhibitor, partial curve] | – |
| Cc1cc(C)n(CCc2nc(-c3cc4ccccc4o3)cs2)n1 | inconclusive: 5.62 µM [inhibitor, partial curve] | – |
| Cc1ccc(NC(=S)Nc2cccc(-c3n[nH]c(=S)o3)c2)cc1 | inconclusive: 25.1 µM [inhibitor, partial curve, poor fit] | – |
| O=S(=O)(c1ccc(Cl)cc1)n1ccc2cccnc21 | inactive | – |
| CN1CCC(N(C)C(=S)NC(=O)c2cc(-c3cccc(Br)c3)nc3ccccc23)CC1 | inconclusive: 28.2 µM [inhibitor, single point] | – |
| O=C(O)Cc1sc(N/N=C\c2ccncc2)nc1-c1ccccc1 | inconclusive: 15.8 µM [inhibitor, partial curve] | – |
| CC(=O)n1cc([C@H]2C=C(C(=O)NCc3ccccc3)O[C@@H](OCc3ccc(CO)cc3)C2)c2ccccc21 | inconclusive: 25.1 µM [inhibitor, single point] | – |
| Cc1cc(C)c(Cn2c(C(O)c3ccccc3)nc3ccccc32)c(C)c1 (stereo unspecified) | inactive | – |
| COc1ccc(-c2nsc3c(N4CCCCC4)ncnc23)cc1 | inconclusive: 1.58 µM [inhibitor, full curve] | – |
| CC(C)(C)C(=O)Nc1cccc(-c2nc3ccccc3[nH]2)c1 | inactive | – |
| C/C(=N\NC(=O)COc1ccccc1-c1ccccc1)c1ccc(O)cc1O | inactive | – |
| COC(=O)N1CCN(c2ccc(Cl)c(Cl)c2)CC1 | inconclusive: 5.62 µM [inhibitor, full curve] | – |
| COc1cc(OC)cc(-c2cn[nH]c2N)c1 | inconclusive: 10 µM [inhibitor, partial curve] | – |

— PubChem BioAssay AID1460 (National Center for Advancing Translational Sciences (NCATS), 2008)
